# Experimental data: PubChem BioAssay AID504466 (National Center for Advancing Translational Sciences (NCATS), 2011)
# Out of some 330,000 compounds screened, about 4,200 (1.3%) were called active. Inconclusive means that the source gave no clear call. Such entries were picked first, then a sample of the others. Calls come from the whole dose curve; as a rule, active = well fitted activation curve with a large enough effect; inconclusive = small, poorly fitted or top-dose-only effect; inactive = no such curve, though single readings can be large or run the other way. A potency beside an inconclusive call is a rough fit, not a confirmed value.
# Experiment: qHTS screen for small molecules that induce genotoxicity in human embryonic kidney (HEK293T) cells expressing luciferase-tagged ELG1; note: nearly all actives have a fitted effect of over 60% in size; for activity change, positive = activation: % of control where 0% means no effect
# Conditions: HEK293T ELG1-luciferase reporter, luminescence, 16 h; series mostly up to 46 µM; activity change, positive = activation: at the top concentration
# How it was run: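 Cells (2,000/well) expressing the ELG1-luciferase fusion are dosed by pin tool and kept 16 hr at 37 °C, 5% CO2. Signal comes from ONE-Glo luciferase reagent after 30 min at room temperature.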
# Potency is the fitted concentration of half-maximal effect; tags give direction and shape of the fitted curve.
SMILES,"activity change, positive = activation",Potency
CC(O)c1cccc(-c2ccc(CN3C[C@]4(CO)O[C@@H](CO)C[C@@H]4S3(=O)=O)cc2)c1 (some centres not stated),inactive: 1.69%,
COc1ccc2oc(C(=O)Nc3ccccn3)c(C)c2c1,,"inconclusive: 0.259 µM [activator, full curve]"
Cc1ccc(-c2nnc(NC3CCCC3)s2)cc1,,"inconclusive: 2.31 µM [activator, full curve]"
CCOc1ccc(N(CC(=O)NC2CCCCCC2)S(=O)(=O)c2ccccc2)cc1,,"inconclusive: 20.6 µM [activator, single point]"
CCOc1ccc(C(=O)NC(=S)Nc2ncccc2C)cc1[N+](=O)[O-],,"inconclusive: 16.4 µM [activator, partial curve, poor fit]"
CC1(C)COC(c2coc3ccccc3c2=O)OC1,,"inconclusive: 20.6 µM [activator, partial curve, poor fit]"
COc1cccc(NC(=O)c2cccc(Cl)c2)c1,,active: 2.06 µM
COc1ccc2nc(/C=N/NC(=O)[C@@H]3CCCN3C(=O)OC(C)(C)C)ccc2c1,,"inconclusive: 18.3 µM [activator, partial curve]"
COc1cccc(C(=O)Nc2ccc3[nH]ncc3c2)c1,,"inconclusive: 11.2 µM [activator, single point]"
Cc1ccc(NC(=O)CSc2nc3ccccc3c(=O)n2CCCC(=O)NCCCN2CCOCC2)cc1C,,"inconclusive: 0.291 µM [activator, partial curve, poor fit]"
O=C(COC(=O)C1CC1)c1c[nH]c2ccccc12,,"inconclusive: 8.2 µM [activator, partial curve]"
Nc1nc2c(C(=O)N3CCOCC3)nnn2c2ccccc12,,"inconclusive: 18.3 µM [activator, partial curve]"
O=C(CC(=O)c1c(F)cccc1Cl)c1ccccc1O,inactive: -9.22%,
N#C/C(=C\c1ccc2c(c1)OCCO2)C(=O)Nc1ccc(C(=O)O)cc1,,"inconclusive: 8.2 µM [activator, partial curve]"
CCOc1ccc2nc(SCC(=O)N(C)C)[nH]c2c1,,active: 16.4 µM
Nc1nn(-c2cccc(F)n2)cc1-c1ccccc1,,active: 2.91 µM
CCOC(=O)Cc1c(C)nc2cc(-c3ccc(C(C)(C)C)cc3)[nH]n2c1=O,,"inconclusive: 23.1 µM [activator, partial curve, poor fit]"
Brc1ccc(-c2nnc(-c3ccccc3)o2)o1,,"inconclusive: 9.2 µM [activator, partial curve]"
Cc1csc(CN(C)C(=O)c2cn(Cc3cccc4ccccc34)nn2)n1,inactive: 0.0856%,
CC(=O)c1sc(NC(=O)c2ccccc2C)nc1C,,"inconclusive: 16.4 µM [activator, partial curve, poor fit]"
Cc1cc(N/C=C/C(=O)c2ccccc2)ccc1Br,,"inconclusive: 2.31 µM [activator, partial curve]"
Clc1ccc(/C=N\Nc2ccccc2)cc1,,"inconclusive: 16.4 µM [activator, partial curve, poor fit]"
CC(=O)NCc1ccc(C(=O)CCl)cc1,,"inconclusive: 18.3 µM [activator, partial curve, poor fit]"
O=C(Nc1nc(-c2cccc3ccccc23)cs1)c1ccc2c(c1)S(=O)(=O)c1ccccc1C2=O,,"inconclusive: 29.1 µM [activator, single point]"

SMILES,"activity change, positive = activation",Potency
Cc1cc(=O)oc2cc(NC(=O)c3cccc(Br)c3)ccc12,inactive: 19.2%,
COC(=O)c1cc(Cl)c(NC(=O)c2ccc(C(C)(C)C)cc2)cc1OC,,"inconclusive: 3.66 µM [activator, single point]"
Cc1ccc(NC(=O)c2ccccc2O)cc1,,"inconclusive: 1.3 µM [activator, full curve, poor fit]"
Cc1nc2sc3c(c2c(=O)o1)CCC3,inactive: -1.61%,
Cc1ccc(-n2ncc3c(Nc4cccc(C(=O)O)c4)ncnc32)cc1,,"inconclusive: 2.31 µM [activator, partial curve]"
O=C(NC1CCCC1)c1n[nH]c2ccccc12,,"inconclusive: 5.8 µM [activator, partial curve]"
Cn1c(-c2ccccc2F)cc2onc(-c3ccccc3)c2c1=O,,active: 0.461 µM
c1ccc(CNc2nc(-c3ccccn3)nc3ccccc23)cc1,inactive: -3.96%,
COC(=O)c1ccc(CSC2=NCCS2)cc1,,"inconclusive: 20.6 µM [activator, partial curve]"
O=C(Nc1nc2c(F)cc(F)cc2s1)c1ccccn1,,active: 9.2 µM
Cc1cc(-c2nc3cccnc3s2)ccc1NS(=O)(=O)c1cccs1,,"inconclusive: 13 µM [activator, partial curve]"
COC(=O)C(C(C)C)N(Cc1cc(OC)cc(OC)c1)S(=O)(=O)CCl (configuration not stated),inactive: -1.17%,
CC(C)C1Oc2ccccc2N(CC(=O)N2CCOCC2)C1=O (configuration not stated),inactive: 4.61%,
O=C(NCc1ccccc1)C1=C[C@H](c2ccc3c(c2)OCO3)C[C@H](OCCCCO)O1,inactive: -6.39%,
CC(=O)c1ccc(OCc2cc(C(=O)N(C)Cc3ccccn3)no2)cc1,,"inconclusive: 14.6 µM [activator, partial curve]"
C=CCOc1ccc(C(=O)O)cc1Cl,inactive: 0.44%,
Cc1ccnc(NC(=O)c2ccc(C(=O)c3ccccc3)cc2)c1,,"inconclusive: 0.291 µM [activator, partial curve, poor fit]"
Cc1cccc(NC(=O)c2nc[nH]c2C(=O)NCCCCCNC(=O)OC(C)(C)C)c1,inactive: -12.1%,
N#C/C(=C(/O)COC(=O)CSc1ccc2ccccc2c1)c1nc2ccccc2[nH]1,,"inconclusive: 29.1 µM [activator, partial curve, poor fit]"
O=C1CCCC/C1=C\Nc1ccc(Cl)cn1,,"inconclusive: 16.4 µM [activator, partial curve]"
Cc1cc(NC(=O)c2ccc(Br)cc2)nc(C)n1,inactive: -0.0514%,
Cn1c(C(=O)Nc2ccccc2)cc2sccc21,,"inconclusive: 18.4 µM [activator, partial curve, poor fit]"
COc1ccc(C(=O)Nc2cccc(C)c2)cc1,,"inconclusive: 2.06 µM [activator, full curve]"
Cc1ccc2nc(NS(=O)(=O)c3cn(C)nc3C)sc2c1,,"inconclusive: 5.8 µM [activator, partial curve]"

SMILES,"activity change, positive = activation",Potency
CN(CC(=O)Nc1cccc(F)c1)C(=O)c1ccc(N2CCCCC2)c([N+](=O)[O-])c1,,"inconclusive: 25.9 µM [activator, single point]"
Cc1nc2ccccn2c1C(=O)NC1CCCc2ccccc21 (configuration not stated),inactive: -7.64%,
CC1=CCC(C(=O)O)C(C(=O)Nc2ccc(-c3nc4ccc(C)cc4s3)cc2)C1 (configuration not stated),,active: 5.17 µM
CC(=O)Nc1ccc(N=Cc2ccc(OCc3ccccc3)cc2)cc1,,"inconclusive: 18.4 µM [activator, partial curve, poor fit]"
c1ccc2c(c1)OCC(c1nnc3sc(-c4ccc5c(c4)OCO5)nn13)O2 (configuration not stated),,"inconclusive: 23.1 µM [activator, single point]"
O=C(O)c1ccc(-c2nnc(-c3ccccc3)o2)cc1,,"inconclusive: 1.3 µM [activator, full curve]"
O=C(c1ccc(Cl)cc1)c1cnc(Nc2ccccc2Cl)s1,,"inconclusive: 2.59 µM [activator, full curve, poor fit]"
CC1(C)NC(=O)N(c2ccc([N+](=O)[O-])c(C(F)(F)F)c2)C1=O,,"inconclusive: 14.6 µM [activator, partial curve, poor fit]"
Cc1ccc(N(C(=O)CS(=O)CC(=O)Nc2ccc(F)cc2)C(C(=O)NC2CCCCC2)c2ccco2)cc1 (configuration not stated),,"inconclusive: 29.1 µM [activator, single point]"
CC1CCN(C(=O)COC(=O)c2ccc3c(c2)OCO3)CC1,,"inconclusive: 12.6 µM [activator, single point]"
CCOc1ccc(N2Cc3ccccc3C2)cc1,,active: 23.1 µM
COc1ccc(O)c(-c2cc(-c3cccs3)[nH]n2)c1,inactive: 6.69%,
CCCc1nn(C)c(C(=O)Nc2ccc(C)c(C)c2)c1Cl,,"inconclusive: 13 µM [activator, partial curve, poor fit]"
CCC(C)c1ccc(NC(=O)c2cccs2)cc1 (configuration not stated),,active: 0.731 µM
CN=c1scc(C)n1/N=C/c1ccc2c(c1)OCO2,,active: 0.651 µM
CCOC(=O)c1sc(NC(=S)NC(=O)c2ccccc2)nc1C,,"inconclusive: 20.6 µM [activator, partial curve, poor fit]"
COCCn1c(C)cc(C(=O)COC(=O)c2cncc(Br)c2)c1C,,"inconclusive: 14.6 µM [activator, partial curve, poor fit]"
Cc1cnc(NC(=O)c2cc3ccccc3o2)s1,,"inconclusive: 0.411 µM [activator, full curve, poor fit]"
Cc1ccnc(NC(=O)c2ccc(OCC3CCCO3)cc2)c1 (configuration not stated),,"inconclusive: 0.461 µM [activator, full curve]"
COc1ccc(Cl)cc1C(=O)Nc1nc2ccc(S(C)(=O)=O)cc2s1,,"inconclusive: 6.51 µM [activator, partial curve, poor fit]"
COc1cc(-c2ccccc2)nc(N)n1,,active: 16.4 µM
O=S(=O)(Cc1ccccc1)Nc1ccc(S(=O)(=O)N2CCCC2)cc1,inactive: -2.1%,
Cn1cccc1C(=O)NC1CCCCCC1,,"inconclusive: 20.6 µM [activator, partial curve, poor fit]"
COc1ccc(C(=O)Cc2cc3ccccc3oc2=O)cc1,,"inconclusive: 16.4 µM [activator, single point]"
